# According to PubChem BioAssay AID504832 (National Center for Advancing Translational Sciences (NCATS), 2011):
# Screen size: about 310,000 compounds; about 18,000 (5.8%) were called active. Inconclusive means that the source gave no clear call. Such entries were picked first, then a sample of the others. Calls come from the whole dose curve; as a rule, active = well fitted inhibition curve with a large enough effect; inconclusive = small, poorly fitted or top-dose-only effect, or another doubt; inactive = no such curve, though single readings can be large or run the other way. No potency is given beside an inconclusive call; the fits are too rough.
# Experiment: Primary qHTS for delayed death inhibitors of the malarial parasite plastid, 48 hour incubation
# Details: P. falciparum luciferase growth in erythrocytes; series mostly up to 28.7 µM; activity change, negative = inhibition: at the top concentration
# How it was run: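 A one-generation exposure of luciferase-tagged malaria parasites in RPMI 1640/Albumax erythrocyte culture, 37 C and 5% CO2. Inhibition is inferred from decreased luminescence after adding detection reagent.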
# % is set by controls: 0 for no effect and ±100 for the full control effect; potency is the fitted concentration of half-maximal effect; tags give direction and shape of the fitted curve.
SMILES,"activity change, negative = inhibition",Potency
N#Cc1ccc(OCC(=O)NC(=O)NC2CCS(=O)(=O)C2)cc1 (configuration not stated),inactive: -8.11%,
CCCn1nc(C(=O)Nc2ccc3nc(N4CCOCC4)sc3c2)ccc1=O,,"inconclusive [inhibitor, partial curve, poor fit]"
O=C(c1ccco1)c1cn(CC(=O)N2CCCc3ccccc32)c2ccccc12,,"inconclusive [inhibitor, single point]"
CCN1CCS/C1=C\C=C\C1=[N+](CC)CCS1,,active: 0.928 µM
COc1cc(C2NC(=O)NC(C)=C2C(=O)OC2CCC(C)CC2)ccc1O (configuration not stated),,active: 11.7 µM
COc1ccc(OC)c2sc(N3CCc4ccccc4C3)nc12,,"inconclusive [inhibitor, full curve, poor fit]"
CCOc1ccc(NC(=O)Cn2nc(-c3ccccc3Cl)n(CC)c2=S)cc1,,"inconclusive [inhibitor, single point]"
COc1ccc(-n2c(SCC(=O)Nc3ccccc3OC)nc(O)c(Cc3ccccc3)c2=O)cc1,,"inconclusive [inhibitor, single point]"
COc1ccc(OC)c(CCNC(=O)c2ccc(CS(=O)Cc3cccc(Cl)c3)o2)c1 (configuration not stated),,"inconclusive [inhibitor, single point]"
COc1cccc(-c2noc(C3CCCN(C(=O)CC(C)(C)C)C3)n2)c1 (configuration not stated),inactive: -17%,
Cc1cc(C)nc(NC(N)=NC(C)c2ccccc2)n1 (configuration not stated),,active: 14.7 µM
CCN(c1ccccc1C)S(=O)(=O)c1cc2c3c(c1)CCC(=O)N3CCC2,,"inconclusive [inhibitor, single point]"
CCOC(=O)C1(CCCc2ccccc2)CCN(Cc2cnn(C)c2)CC1,,"inconclusive [inhibitor, single point]"
COc1ccccc1CCC(=O)Nc1ccc(OC)c(S(=O)(=O)N2CCCCC2)c1,,"inconclusive [inhibitor, single point]"
CC(=O)Nc1ccc(NC(=O)CSc2nnc3ccc(-c4cccnc4)nn23)cc1,,"inconclusive [inhibitor, partial curve, poor fit]"
COc1cc(OC)c(C(=O)O/N=C(\N)c2ccc(C)cc2)cc1OC,,"inconclusive [inhibitor, single point]"
O=C(CCOc1ccccc1)Nc1ccccc1[N+](=O)[O-],inactive: 36%,
COc1ccc(OC)c(C(c2nnnn2C2CCCC2)N2CCN(c3ccccc3F)CC2)c1 (configuration not stated),,active: 4.15 µM
CC1CCN(C(=O)CCCOc2ccc(Cl)cc2)CC1,inactive: 83.1%,
CC(=O)Nc1c(NC(C)C)c2ccccc2oc1=O,inactive: 4.42%,
O=S(=O)(NC1=NCCCCC1)c1ccc2ccccc2c1,inactive: 28.5%,
CCN(CC)S(=O)(=O)c1ccc(N2CCCCC2)c(NC(=O)C2CCN(C(=O)c3ccc(F)cc3)CC2)c1,,active: 11.7 µM
Cc1ccc(S(=O)(=O)N2CCN(C(=O)COC(=O)Cc3ccc(Cl)cc3)CC2)c(C)c1,,"inconclusive [inhibitor, single point]"
COc1ccc(COC(=O)C2=C(C)NC(=O)NC2c2ccc(F)cc2)cc1 (configuration not stated),,"inconclusive [inhibitor, single point]"

SMILES,"activity change, negative = inhibition",Potency
Cc1ccc(C)c(NC(=O)CN(C)C(=O)Cc2ccc(Cl)cc2Cl)c1,,"inconclusive [inhibitor, partial curve, poor fit]"
CCc1ccccc1NC(=O)C1CCCN(c2nccc(C)n2)C1 (configuration not stated),,"inconclusive [inhibitor, partial curve, poor fit]"
Cc1cccc(C(C)C)c1NC(=O)CN1C(=O)NC2(CCc3ccccc32)C1=O (configuration not stated),inactive: -7.44%,
O=C(CN1CCCc2ccccc21)NC(=O)NCc1ccccc1,,"inconclusive [inhibitor, single point]"
COc1ccc(Br)cc1/C=C/C(=O)NC(=S)Nc1ccc(Cl)c(C(=O)O)c1,,"inconclusive [inhibitor, full curve, poor fit]"
Cc1cccc(NC(=S)NC2CC3CCC(C2)N3Cc2ccco2)c1C (configuration not stated),inactive: -14.9%,
CC(=O)Oc1ccc(Cl)cc1/C=C/c1ccc2ccccc2n1,,active: 2.62 µM
CCOc1ccc2nc(NC(=O)NC3CCCCC3)sc2c1,,"inconclusive [inhibitor, partial curve]"
Cn1cc(CCC(=O)NCCCc2ccccc2)c2ccccc21,inactive: 56%,
Cc1cc(NC(=O)Nc2ccc(F)cc2F)n(C)n1,inactive: 32.2%,
COC(=O)C1CCN(C(=O)c2ccc3nc(-c4cccc(OC)c4)oc3c2)CC1,inactive: 0.915%,
COc1ccccc1C(=O)NC(=O)CSc1nncn1C,,"inconclusive [inhibitor, partial curve, poor fit]"
CCOC(=O)c1c(NC(=O)/C=C/C(=O)O)sc(C)c1-c1ccc(F)cc1,,"inconclusive [inhibitor, full curve, poor fit]"
NCC1CCC(C(=O)Oc2ccc(CCC(=O)O)cc2)CC1 (configuration not stated),inactive: -16.5%,
O=C(COc1ccccc1)N1CCN(C/C=C/c2ccccc2)CC1,,"inconclusive [inhibitor, single point]"
O=[N+]([O-])c1ccc(COc2ccc(-c3[nH]ncc3-c3ccccc3)c(O)c2)cc1,,active: 13.1 µM
CC(=O)Nc1ccc(C(=O)OCCC(C)C)cc1,inactive: 61.3%,
Cc1csc(NC(=O)c2ccncc2)n1,,"inconclusive [inhibitor, partial curve, poor fit]"
CC(=O)N1c2ccc(S(=O)(=O)N3CCC(C(=O)NCc4ccc(Cl)cc4)CC3)cc2CC1C (configuration not stated),,active: 9.28 µM
O=C1Nc2ccccc2N2CCCC12 (configuration not stated),,"inconclusive [inhibitor, full curve]"
CCN1CCCC1CNc1ncnc2c1[nH]c1ccc(F)cc12 (configuration not stated),,active: 2.33 µM
COC(=O)c1ccc(CN(c2ccccc2OC)S(=O)(=O)c2cccs2)o1,,"inconclusive [inhibitor, partial curve, poor fit]"
COCCN1C(=O)N(c2cccc(OC)c2)C(=O)C1CC(=O)Nc1ccc(Cl)cc1 (configuration not stated),,"inconclusive [inhibitor, full curve, poor fit]"
O=C(Nc1cccc2cccc(NC(=O)c3ccco3)c12)c1ccco1,,"inconclusive [inhibitor, partial curve]"

SMILES,"activity change, negative = inhibition",Potency
N#CCCn1c(-c2nonc2NC(=O)c2ccccc2Cl)nc2ccccc21,,"inconclusive [inhibitor, single point]"
CCC(NC(=O)CCl)c1ccc(C)cc1 (configuration not stated),,active: 5.86 µM
O=C(OCCN1CCOCC1)c1ccc(O)cc1,inactive: 15.4%,
CC(C)(C)NC(=O)c1ccc2c(c1)N(CC(=O)N1CCN(c3ccc(F)cc3)CC1)C(=O)C(C)(C)O2,,active: 10.4 µM
Cn1cc([C@@H]2C[C@H]3CN(Cc4cccc(Cl)c4)C(=O)[C@]34CCCN24)c2ccccc21,,active: 11.7 µM
Cc1ccc(CNC(=O)C23CN(Cc4ccccc4)CC2C(c2cccc([N+](=O)[O-])c2)=NO3)cc1 (configuration not stated),,active: 10.4 µM
O=C1NC[C@@H](Cc2cccc3ccccc23)N(CC2CCCCC2)C1=O,,"inconclusive [inhibitor, single point]"
O=C(CCN1C(=O)/C(=C/c2ccc(F)cc2)SC1=S)NC1CCS(=O)(=O)C1 (configuration not stated),inactive: -13.9%,
O=C(CSc1nc2ccccc2c(=O)n1CCC(=O)N1CCCCC1)NCc1ccccc1,,"inconclusive [inhibitor, single point]"
Cc1nnc(N2CCCC(C(=O)NCc3ccccc3F)C2)c2nn(-c3ccccc3)c(C)c12 (configuration not stated),,"inconclusive [inhibitor, partial curve, poor fit]"
Cn1c(=O)[nH]c(=O)c2c1nc(N1CCCCCC1)n2CC(=O)c1ccccc1,inactive: 8.78%,
COc1ccc(S(=O)(=O)N2c3ccc(Cl)cc3[C@](O)(c3ccccc3Cl)[C@@H]2C(=O)N2CCC[C@H]2C(N)=O)cc1OC,,"inconclusive [inhibitor, single point]"
Fc1ccc2c(c1)/C(=N/Nc1ccccn1)CCS2,,"inconclusive [inhibitor, single point]"
Cc1[nH]n(-c2ccccc2)c(=O)c1/C=N/N1CCOCC1,inactive: 13.1%,
COc1ccccc1-c1cc(C(=O)NCc2ccco2)no1,inactive: 30.6%,
COc1ccc(CN(C)CC(=O)Nc2sc3c(c2C#N)CCC3)c(OC)c1,,"inconclusive [inhibitor, single point]"
CCOC(=O)C1=C(C)C2C3C(=O)N(c4cc(C)ccc4C)C(=O)C3C1(C)C1C(=O)N(c3cc(C)ccc3C)C(=O)C21 (configuration not stated),,active: 13.1 µM
CCOc1ccccc1N/C(=N/c1nc(C)cc(C)n1)NC(=O)Nc1ccc(Cl)c(Cl)c1,,"inconclusive [inhibitor, partial curve, poor fit]"
O=C(c1ccc(C(F)(F)F)cc1)n1ccc(-c2cccs2)n1,inactive: 55.6%,
CCN(Cc1ccccc1)C(=O)CCNS(=O)(=O)c1ccc2c(c1)CC(C)N2C(C)=O (configuration not stated),inactive: 8.31%,
CSc1nnc(-c2cccc(NC(=S)NN)c2)o1,,"inconclusive [inhibitor, partial curve]"
CCOc1ccc(N(C)S(=O)(=O)c2ccc3[nH]cc(C(=O)NCCCOC)c(=O)c3c2)cc1,,"inconclusive [inhibitor, single point]"
CC(=O)N=c1sc2c3ccccc3ccc2n1C,inactive: 1.93%,
CCCn1c(=O)c(/C(N)=N/O)nn(-c2cccc(C(F)(F)F)c2)c1=O,,"inconclusive [inhibitor, single point]"
